# According to article PMC4336329 (PLoS ONE, 2015):
# The campaign covered roughly 310,000 compounds. About 14,000 (4.5%) showed an effect of 50% or more. Effects have a minus sign here. Some of the results follow.
# Biological target: human ether-à-go-go-related gene (hERG) potassium channel (human, UniProt Q12809)
# Assay: primary screen, population patch clamp on CHO cells stably expressing hERG
# 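Further: peak tail current of the secondary pulse compared with the same well before compound.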
# Sequence of human ether-à-go-go-related gene (hERG) potassium channel (Q12809 whole entry, looked up): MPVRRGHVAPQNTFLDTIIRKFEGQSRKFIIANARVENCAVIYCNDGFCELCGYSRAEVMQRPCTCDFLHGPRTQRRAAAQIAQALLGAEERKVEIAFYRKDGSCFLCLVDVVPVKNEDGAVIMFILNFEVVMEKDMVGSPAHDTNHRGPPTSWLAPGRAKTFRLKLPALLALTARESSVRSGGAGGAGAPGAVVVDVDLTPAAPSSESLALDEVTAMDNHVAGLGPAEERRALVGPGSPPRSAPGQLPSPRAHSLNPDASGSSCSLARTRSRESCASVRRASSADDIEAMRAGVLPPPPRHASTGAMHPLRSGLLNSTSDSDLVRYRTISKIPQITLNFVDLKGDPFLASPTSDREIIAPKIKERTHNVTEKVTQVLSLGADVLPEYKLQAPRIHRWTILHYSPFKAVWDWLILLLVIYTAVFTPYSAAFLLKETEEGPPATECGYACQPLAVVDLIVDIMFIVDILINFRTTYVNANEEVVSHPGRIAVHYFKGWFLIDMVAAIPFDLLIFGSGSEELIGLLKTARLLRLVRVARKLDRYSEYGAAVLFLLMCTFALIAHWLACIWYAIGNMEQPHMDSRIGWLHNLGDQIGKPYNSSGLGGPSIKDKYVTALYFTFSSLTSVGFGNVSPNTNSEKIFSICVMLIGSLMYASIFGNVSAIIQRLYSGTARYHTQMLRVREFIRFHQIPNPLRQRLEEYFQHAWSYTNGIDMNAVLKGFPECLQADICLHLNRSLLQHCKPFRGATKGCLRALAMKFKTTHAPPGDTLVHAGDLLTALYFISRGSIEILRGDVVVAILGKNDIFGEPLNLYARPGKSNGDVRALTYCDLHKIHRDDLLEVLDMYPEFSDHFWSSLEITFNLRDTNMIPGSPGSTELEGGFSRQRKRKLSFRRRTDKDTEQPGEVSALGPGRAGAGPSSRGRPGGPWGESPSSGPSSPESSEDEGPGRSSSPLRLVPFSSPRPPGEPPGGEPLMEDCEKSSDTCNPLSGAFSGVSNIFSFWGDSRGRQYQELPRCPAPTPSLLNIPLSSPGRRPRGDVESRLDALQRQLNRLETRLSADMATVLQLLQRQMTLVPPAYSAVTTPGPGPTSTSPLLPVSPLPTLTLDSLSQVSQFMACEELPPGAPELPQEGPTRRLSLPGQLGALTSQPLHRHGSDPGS
row,SMILES,"hERG current change (%, negative = inhibition) at 10uM [%]"
1,COC(=O)c1sccc1NC(=O)c1cccnc1,-10.3
2,CC(=O)c1cccc(Nc2cc(C)nc3ccc(C)cc23)c1.Cl,-65.2
3,O=C(CCN1C(=O)/C(=C/c2ccccc2Cl)SC1=S)N1CCCC1,10.6
4,CCCCNC(=O)CCn1c(=O)c2ccccc2n(Cc2ccc(Cl)cc2)c1=O,-9.17
5,COc1ccc(CNC(=O)[C@@H](C)NC(=O)C2CCN(C(=O)[C@@H](N)CCSC)CC2)cc1,17.5
6,Clc1cccc(N2CCN(Cc3nc(-c4ccccc4)no3)CC2)c1,-12
7,CC1(C)CC(=O)C(C=NCC2CCN(C(=O)Nc3ccc(Cl)c(Cl)c3)CC2)=C(O)C1,-23.8
8,Cn1cc(CN2C[C@]3(C)C[C@H]2CC(C)(C)C3)c(-c2ccc3c(c2)OCCO3)n1,-4.94
9,CC(C)n1cc(C(=O)N(CC(=O)NC(C)(C)C)Cc2ccccc2)cn1,6.03
10,c1ccc(-n2nnc3c(N4CCOCC4)ncnc32)cc1,-16.8
11,O=C(O)C1(O)C[C@H](O)C(O)[C@@H](O)C1 (stereo partly shown),13.9
12,COC(=O)c1c(C(=O)OC)c(-c2ccc(OC)cc2)n2c1CCC2,6.63
13,COc1c(Br)cc(C(N)=O)cc1OCc1ccccc1,10.4
14,COc1cc(C=O)ccc1OCC(=O)Nc1cccc(S(=O)(=O)N(C)c2ccccc2)c1,-30.1
15,O=C(Cn1cnc2c(oc3ccccc32)c1=O)NCCc1ccccc1,-3.66
16,Cc1ccccc1NC(=O)N1C2CCC1CC(O)(c1cccnc1)C2 (stereo not shown),-3.64
17,CN(C)/C=N/n1cnc2ccccc2c1=O,16.8
18,Cc1cc(C)c(NC(=O)c2ccccc2CCc2ccccc2)c(C)c1,3.43
19,COc1ccccc1OCCNC1CCCC1,-5.7
20,Cc1[nH]n(C)c(=O)c1C(=O)c1c(-c2ccccc2Cl)noc1C,1.23
21,Cn1cnnc1SCC(=O)Nc1ccc(S(N)(=O)=O)cc1,17.5
22,Cc1ccc(S(=O)(=O)NCCCN2CCCC2)cc1,8.31

row,SMILES,"hERG current change (%, negative = inhibition) at 10uM [%]"
1,O=C(Cn1cnc2ccccc21)NCCCN1CCOCC1,-10.3
2,O=C(CCn1nc(-c2ccc(Cl)cc2)c2ccccc2c1=O)NCC1CCCO1 (stereo not shown),-32
3,CCOCCCN(CC(=O)NC1CCCC1)C(=O)C(=O)Nc1ccc2c(c1)OCCO2,14.9
4,Cn1c(-c2ccccc2)cnc1NCc1ccc(-c2ccccc2)cc1.O=C(O)C(=O)O,-10.4
5,O=C(Nc1nnc(-c2ccc(Br)cc2)o1)C1=COCCO1,3.07
6,CCCCCC(=O)NC(=S)Nc1ccc(Br)cc1C,18.5
7,C=CCN1C(=O)[C@]2(c3ccccc31)C1CCCC=C1C(C#N)=C(N)C2(C#N)C#N (stereo partly shown),-4.68
8,CCOC(=O)c1cccc(-n2c(C)cc(C=O)c2C)c1,2.46
9,CC(C)(C)n1cc(C(=O)c2ccc3ccccc3c2O)cn1,12.6
10,CC(=O)Nc1ccc(S(=O)(=O)NC(CC(=O)NCCc2ccccc2)C(C)C)cc1 (stereo not shown),8.98
11,CC1CCC(NC(=O)CCS(=O)(=O)c2ccc3c(c2)NC(=O)C(C)S3)CC1 (stereo not shown),4.25
12,O=C(CN(Cc1ccc(F)cc1)C(=O)CNS(=O)(=O)c1ccc(Cl)cc1)NCC1CCCO1 (stereo not shown),-36.8
13,COC(=O)c1c(C)[nH]c(C(=O)OCc2ccc(F)cc2)c1C,6.58
14,COCCCNC(=O)Cn1cc(/C=C(\C#N)C(=O)NC2CCCC2)c2ccccc21,-6.65
15,CCC1(N(C(C)=O)c2ccc(OC)cc2)C(=O)c2ccccc2C1=O,8.56
16,CCn1c(COc2ccc(=O)n(-c3ccccc3)n2)nnc1SCC(=O)OC,9.02
17,COCC(=O)Oc1c(S(=O)(=O)c2ccc(C)cc2)c(C)nn1-c1ccccc1,-0.197
18,CCN1CCN(S(=O)(=O)c2cccc(S(=O)(=O)N3CCOCC3)c2)CC1,14
19,O=C(OCCCOC(=O)c1ccc([N+](=O)[O-])o1)c1ccc([N+](=O)[O-])o1,11
20,O=[N+]([O-])c1ccc(CN2CCCCCC2)cc1,-32.8
21,CC(=O)N1CCC2(CC1)C(C#N)=C(N)Oc1c2sc2nc(C)cc(C)c12,-3.03
22,Cc1nn(-c2ccc(F)cc2)c(Cl)c1/C=N/NC(=O)c1ccc(O)cc1,38.3

row,SMILES,"hERG current change (%, negative = inhibition) at 10uM [%]"
1,O=C(NCc1nc2ccccc2[nH]1)C1=C[C@@H](c2ccc(C(F)(F)F)cc2)C[C@@H](OCCCCO)O1,-38.7
2,CC1(C)OC(=O)C=C[C@]2(C)[C@H]3CC[C@@]4(C)[C@H](C(=O)O)OC(=O)[C@H]5O[C@]54[C@]3(C)C(=O)C[C@@H]12,17.9
3,Cc1cc(C(=O)NC(=S)Nc2ccccc2N2CCCC2)ccc1[N+](=O)[O-],4.9
4,Cc1csc(N/N=C/c2ccccn2)n1,20.2
5,COC(C(=O)Nc1ccc(S(=O)(=O)N2CCCCC2)cc1)c1ccccc1 (stereo not shown),-15.3
6,CC(C)(C)c1ccc(S(=O)(=O)N2CCCCC2)cc1,-20
7,COc1ccc(/C(C)=N/NC(=O)OC(C)(C)C)cc1[N+](=O)[O-],5.01
8,CCOc1ccc(C(C)=O)cc1CSc1nnnn1-c1ccc(O)cc1,-32.6
9,COc1ccc(OC)c(S(=O)(=O)N2CCCC(C(=O)NCc3ccco3)C2)c1 (stereo not shown),-5.29
10,Cn1cccc1/C=C1\SC(=S)N(NC(=O)c2ccccc2Cl)C1=O,1.91
11,CC1CCN(Cc2ccc(NC(=O)CC3Oc4ccccc4NC3=O)cc2)CC1 (stereo not shown),-11.5
12,Cc1c(Nc2c3ccccc3nc3ccccc23)c(=O)n(-c2ccccc2)n1C,-71
13,C/C(=N\NC(=O)c1ccccc1[N+](=O)[O-])c1c(O)cc(C)oc1=O,28.6
14,CCOc1ccc(S(=O)(=O)c2c(C(=O)c3ccccc3)cnc3cc4c(cc23)OCCO4)cc1,1.93
15,Cc1ccc(-n2c(SCC(=O)Nc3cccc(S(N)(=O)=O)c3)nc3ccccc32)cc1,-12.7
16,COc1ccc(N2C(=O)c3ccccc3NC2c2ccc(OC)c(CSc3ccccn3)c2)cc1 (stereo not shown),2.62
17,Fc1ccc(-c2oncc2-c2nnnn2-c2ccccc2)cc1F,-15.4
18,Cc1cc(C(=O)NCC(=O)OCC(=O)NCC2CCCO2)ccc1[N+](=O)[O-] (stereo not shown),15.3
19,C=CCNC(=O)/C(=C/c1cn(-c2ccccc2)nc1-c1cccc([N+](=O)[O-])c1)NC(=O)c1ccccc1,-3.58
20,O=C1CSC(c2cccnc2)N1CC1CC1 (stereo not shown),5.92
21,Cn1c(N)c(C(=O)CSc2n[nH]c(-c3ccccc3)n2)c(=O)n(C)c1=O,1.13
22,O=C(CSc1ncccn1)N1CCN(S(=O)(=O)c2ccccc2)CC1,-13.3

row,SMILES,"hERG current change (%, negative = inhibition) at 10uM [%]"
1,CCC(C)NC(=O)CO/N=C/c1ccccc1OC(F)F (stereo not shown),-5.7
2,Cc1cccc(OCC(=O)Nc2ccc3c(c2)nc(CCN2CCN(C)CC2)n3C)c1,-37.1
3,CC(=O)Nc1ccc(S(=O)(=O)NCCSCc2ccccc2Cl)cc1,2.92
4,CCOC(=O)C1CCCN(C(=O)c2ccc3c(c2)NC(=O)C(N2CCOCC2)S3)C1 (stereo not shown),19.7
5,Cc1ccc(S(=O)(=O)N2CCC3(CC2)OCCO3)c(C)c1,11.8
6,CN(C)/C=N/C1=C(C#N)C(c2ccc(Br)cc2)c2ccc3ccccc3c2O1 (stereo not shown),31.5
7,Cc1ccc(N2C(=O)CC(N3CCN(c4ccc(F)cc4)CC3)C2=O)c(C)c1 (stereo not shown),-17.7
8,CN(Cc1ccccc1F)C(=O)CCNC(=O)c1ccc(C(C)(C)C)cc1,-31.4
9,Cc1cccc(OCC(=O)N2CCN(C(=O)c3ccc([N+](=O)[O-])cc3)CC2)c1,-68.8
10,CCOC(=O)CN(C#N)c1nc(C)cc(C)n1,-7.84
11,O=C(c1c(O)cc(O)cc1O)C1c2c(cc(O)c3c2O[C@H](c2ccc(O)cc2)[C@@H](O)C3)OC1c1ccc(O)cc1 (stereo partly shown),13.8
12,N#C/C(=C/c1ccc(-c2ccc(S(N)(=O)=O)cc2)o1)c1nc2ccccc2s1,9.67
13,CC(=O)Nc1ccc(S(=O)(=O)NCC(=O)OCC(=O)N2CCN(c3ccccc3)CC2)cc1,1.78
14,O=C1CSC(c2cccc([N+](=O)[O-])c2)N1CCc1ccccc1 (stereo not shown),-20.2
15,COc1ccccc1NC(=O)CSc1ncc(CO)n1Cc1ccc(F)cc1,0.747
16,Cc1ccc(/C=N/NC(=O)CN2C(=O)CSc3ccccc32)o1,11.6
17,COc1ccc(C2C(C(=O)N3CCN(c4ccccc4F)CC3)c3ccccc3C(=O)N2C)cc1 (stereo not shown),-35.2
18,Cc1ccccc1NC(=S)N1CCN(C(=O)c2ccco2)CC1,1.38
19,CCc1ccc(CCC(=O)Nc2ccc(OC)cc2)o1,4.65
